Data as given in PubChem BioAssay AID686978 (National Center for Advancing Translational Sciences (NCATS), 2013).
Out of some 420,000 compounds screened, about 64,000 (15%) were called active. The inconclusive results got no clear call from the source; some entries with a clear call stand among them for comparison. Calls come from the whole dose curve; as a rule, active = well fitted inhibition curve with a large enough effect; inconclusive = small, poorly fitted or top-dose-only effect; inactive = flat fitted curve, though single readings scatter. No potency is given beside an inconclusive call; the fits are too rough.

Experiment: qHTS for Inhibitors of human tyrosyl-DNA phosphodiesterase 1 (TDP1): qHTS in cells in absence of CPT; note: nearly all actives have a fitted effect of over 55% in size
Conditions: DT40 Tdp1-/- hTDP1 cells, no CPT, ATP luminescence, 48 h; activity change, negative = growth inhibition: at 46.2 µM (top of the series) unless noted
In short: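 Growth of hTDP1-complemented DT40 Tdp1-knockout cells is measured by ATP luminescence after at least 48 hr compound exposure at 37 °C, with DMSO substituting for the 20 nM CPT used in the parallel screen.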
% is set by controls: 0 for no effect and ±100 for the full control effect; potency is the fitted concentration of half-maximal effect; tags give direction and shape of the fitted curve.

| Structure (SMILES) | Potency | activity change, negative = growth inhibition |
| --- | --- | --- |
| Cc1cc(C)nc(NN2C(=O)C=CC2=O)n1 | inconclusive [inhibitor, single point] |  |
| COc1ccc(C2=NN(C(N)=S)C(c3ccccc3)C2)cc1 (stereo not drawn) | inconclusive [inhibitor, single point] |  |
| COc1ccc(C(=O)NC(CO)c2nnc(SCc3ccc(Cl)c(Cl)c3)n2C)cc1 (stereo not drawn) | inconclusive [inhibitor, single point] |  |
| Cc1ccc(S(=O)(=O)N2CCN(C(=O)CSc3nc(N)cc(=O)[nH]3)CC2)c(C)c1 | inactive |  |
| Cc1ccc(S(=O)(=O)N2CCOCC2)cc1C(=O)NCCN1C(=O)S/C(=C\c2ccccc2Cl)C1=O | inconclusive [inhibitor, single point] |  |
| Cc1ccc(C(=O)Nc2cccc(-c3nc(CNC(=O)c4ccc5ccccc5n4)c(C)o3)c2)s1 | active: 16.4 µM |  |
| COc1ccc(NC(=O)CCCn2nc(C)c3sc4ccccc4c3c2=O)cc1 | inconclusive [inhibitor, single point] |  |
| Cc1cccc(-c2cc(C(=O)N3CCCc4ccccc43)c3ccccc3n2)c1 | inconclusive [inhibitor, single point] |  |
| O=C(Cn1ncc2c3ccccc3n(Cc3ccc(F)cc3)c2c1=O)NCc1cccs1 | inactive |  |
| O=C(COC(=O)c1ccco1)Nc1nnc(-c2ccccc2)o1 | inactive |  |
| CCn1c(COc2ccc(C)cc2)nnc1SCc1nc2ccccc2[nH]1 | inconclusive [inhibitor, partial curve] |  |
| COc1ccc(-c2noc(CCC(=O)N3CCN(c4ccc(Br)cc4)CC3)n2)cc1 | inconclusive [inhibitor, single point] |  |
| Cc1cc(-n2c(C)nc3ccccc3c2=O)ccc1NC(=O)C(F)(F)F | inconclusive [inhibitor, partial curve] |  |
| CC(CNC(=O)c1ccc2nc(Cc3ccccc3)oc2c1)c1ccccc1 (stereo not drawn) | active: 16.4 µM |  |
| CCn1cc(CNC(=O)/C=C/c2ccc([N+](=O)[O-])cc2)c(C)n1 | inconclusive [inhibitor, partial curve, poor fit] |  |
| CCOC(=O)C1=C(C)Nc2nc(SCC)nn2C1c1ccc(OC)cc1 (stereo not drawn) | inconclusive [inhibitor, single point] |  |
| COc1ccc(CN2CCN(c3ccc(F)cc3)CC2)c(OC)c1OC | inconclusive [inhibitor, single point] |  |
| CCOc1ccc(N(CC(=O)OC)S(=O)(=O)c2ccc(OC)c(OC)c2)cc1 | inconclusive [inhibitor, single point] |  |
| COc1ccc(C(=O)Nc2cccc(-c3nc4ncccc4o3)c2C)cc1OC | inconclusive [inhibitor, single point] |  |
| COc1ccc(C(=O)N/N=C/c2cn[nH]c2-c2ccc(OC)cc2OC)cc1 | inconclusive [inhibitor, single point] |  |
| CCN(Cc1ccccc1)S(=O)(=O)c1ccc(-c2coc(C)n2)cc1 | active: 23.1 µM |  |
| FC(F)(F)c1cccc(NC(=S)N2CCCC2)c1 | inactive |  |
| COc1cccc(C2C3CN(C)CC=C3C(C#N)=C(N)C2(C#N)C#N)c1OC (stereo not drawn) | inactive |  |
| O=C(OCc1c(Cl)nc2sccn12)c1cc2c(s1)CCCC2 | inconclusive [inhibitor, single point] |  |
| O=C(CCCc1ccccc1)NCCS(=O)(=O)N1CCN(c2ccccc2F)CC1 | active: 18.4 µM |  |

| Structure (SMILES) | Potency | activity change, negative = growth inhibition |
| --- | --- | --- |
| CCC(C)Nc1ncnc2c1cnn2-c1ccc(F)cc1 (stereo not drawn) | inconclusive [inhibitor, single point] |  |
| COc1ccc(C(O)c2nc(-c3ccc(F)cc3OC)cs2)cc1 (stereo not drawn) | inconclusive [inhibitor, single point] |  |
| C(=C\c1ccc2ccccc2n1)/c1ccccc1 | inconclusive [inhibitor, single point] |  |
| COc1ccc(CN(CC2CCCO2)C(=O)c2cc3sccc3n2C)c(OC)c1 (stereo not drawn) | inconclusive [inhibitor, single point] |  |
| COc1cccc(/C=N/NC(=O)c2ccc(N3CCCC3=O)cc2)c1 | active: 23.1 µM |  |
| CCOc1ccc(-c2nn(-c3ccccc3)cc2/C=C2\SC(N)=NC2=O)cc1C | inconclusive [inhibitor, single point] |  |
| O=C(NCCNC(=O)c1ccco1)c1ccc(F)cc1 | inactive |  |
| O=C(c1ccccc1)N1CCCCCC1 | inactive |  |
| Cn1c(SCC(=O)N2CCN(S(=O)(=O)c3ccc(Cl)cc3)CC2)nc2ccccc21 | inconclusive [inhibitor, partial curve] |  |
| COc1ccc(-c2nc(CN3CCN(c4ncccn4)CC3)c(C)o2)cc1C | active: 20.6 µM |  |
| N#CCC(=O)Nc1sc2c(c1C(N)=O)CCCC2 | inactive |  |
| O=c1cc(CN2CCN(S(=O)(=O)/C=C/c3ccccc3)CC2)c2ccc(O)cc2o1 | active: 20.6 µM |  |
| COc1ccc(N2C(=O)CN=C2Nc2cccc(C)c2C)cc1OC | inactive |  |
| O=C(NNC(=S)NC1CCCCC1)c1ccccc1Br | inconclusive [inhibitor, single point] |  |
| Cc1cc(C(=O)Nc2ccc(-n3c(C)nc4ccccc4c3=O)cc2)ccc1[N+](=O)[O-] |  | inconclusive: -22.3% [inhibitor] |
| CCOC(=O)c1nnn2c1nc(N1CCN(C)CC1)c1ccccc12 | inactive |  |
| COc1ccc(NS(=O)(=O)c2ccc3nc(-c4ccccc4)[nH]c3c2)cc1 | inconclusive [inhibitor, single point] |  |
| Cc1cc(N2C(=O)C(O)=C(C(=O)c3ccco3)C2c2ccccc2F)no1 (stereo not drawn) | inconclusive [inhibitor, single point] |  |
| COc1cc(OC)c(OC)cc1CN1CCCC(C(=O)c2ccccc2SC)C1 (stereo not drawn) | active: 20.6 µM |  |
| CCOC(=O)c1c(-c2ccccc2)csc1NC(=O)CSc1ccccc1 | inconclusive [inhibitor, single point] |  |
| Cc1ccc(CNC(=O)CSc2ncc(C(=O)Nc3ccccc3)c(=O)n2C)cc1 | active: 14.6 µM |  |
| O=C(Nc1ccc2c(c1)OCCO2)c1cc(F)c(F)cc1Cl | inactive |  |
| O=C(CSCc1ccccc1)NC1CCSC1=O (stereo not drawn) | inactive |  |
| O=C(Nc1ccc(Cl)cn1)c1ccc2c(c1)OCCO2 | active: 18.4 µM |  |
| Cc1ccc(C)c2[nH]c(=O)c(C(c3nnnn3Cc3ccco3)N3CCc4ccccc4C3)cc12 (stereo not drawn) | inconclusive [inhibitor, single point] |  |

| Structure (SMILES) | Potency | activity change, negative = growth inhibition |
| --- | --- | --- |
| CCCCCCN1C[C@H](O)[C@@H](n2cc(COC(=O)c3ccccc3)nn2)C[C@@H]1c1ccc(Cl)cc1 | inconclusive [inhibitor, single point] |  |
| CCOc1ccc(C(=O)Nc2ccccc2N2CCN(C(=O)c3ccccc3)CC2)cc1[N+](=O)[O-] | active: 11.6 µM |  |
| C=CCN1C(=O)/C(=C/c2ccc(-c3ccc(F)cc3)o2)SC1=S | inactive |  |
| CC(=O)n1cc(-c2ccncc2)c2ccccc21 | inconclusive [inhibitor, single point] |  |
| O=C(NCC(c1ccc(Cl)cc1)N1CCOCC1)c1ccccc1F (stereo not drawn) | active: 13 µM |  |
| CN(C)C(=O)N1CCC(C(=O)NCc2ccccc2)CC1 | inactive |  |
| COc1cc(C(=O)Nc2ccccc2C(=O)NCc2cccnc2)cc(OC)c1OC |  | inconclusive: -31.4% [inhibitor] |
| COc1cc(/C=N/NC(=O)c2cccc(NC(=O)c3ccccc3C)c2)ccc1O | inconclusive [inhibitor, single point] |  |
| COC(=O)c1cccc(/C=N/NC(N)=S)c1O | active: 0.259 µM |  |
| CCOc1ccc(N2C(=O)/C(=C/c3ccccc3)N=C2SC)cc1 | inconclusive [inhibitor, full curve, poor fit] |  |
| CCC(C)NC(=O)CS(=O)Cc1nc(-c2ccccc2C)oc1C (stereo not drawn) | inconclusive [inhibitor, single point] |  |
| Cc1noc(C)c1-c1nc(NC2CCNCC2)c2ccccc2n1 | inconclusive [inhibitor, single point] |  |
| CCOCCCNC(=O)c1cc(Sc2ccc(C)cc2)nc2ccccc12 | inconclusive [inhibitor, single point] |  |
| Cc1ncc(CO)c2cc(C(=O)Nc3cccc(F)c3)c(=Nc3cccc(C(N)=O)c3)oc12 | inconclusive [inhibitor, single point] |  |
| COc1cccc(Nc2nc(N)c([N+](=O)[O-])c(NCc3ccccc3)n2)c1 | inconclusive [inhibitor, single point] |  |
| O=C(COc1ccc2ccccc2c1)N/N=C/c1ccccn1 | inconclusive [inhibitor, partial curve] |  |
| CCOC(=O)N(Cc1ccccc1)C1CC1 | inactive |  |
| C/C(=C\C(=S)Nc1ccccc1)Nc1ccc2ccccc2c1 | inconclusive [inhibitor, single point] |  |
| Cc1ccc(S(=O)(=O)c2cn(Cc3ccc(F)cc3)c3cc4c(cc3c2=O)OCO4)cc1 | inactive |  |
| Clc1ccc(CSc2ncnc3c2ncn3C2CCCCO2)cc1 (stereo not drawn) | active: 16.4 µM |  |
| CCOC(=O)c1cccc(NC(=O)c2cc(C)nn2-c2ccccc2)c1 | inconclusive [inhibitor, single point] |  |
| COC(=O)Nc1ccc(S(=O)(=O)N2CCC(C(=O)N3CCCCC3C)CC2)cc1 (stereo not drawn) | inconclusive [inhibitor, single point] |  |
| CC(OC(=O)CNC(=O)c1ccc(Cl)c(Cl)c1)C(=O)N1CCOCC1 (stereo not drawn) | inactive |  |
